Screen size: about 410,000 compounds; about 310 (0.076%) were called active. About 2% were inconclusive and are not listed. Calls follow the shape of the dose curve; as a rule, active = well fitted curve in the direction sought with a large enough effect; inconclusive = small, poorly fitted or top-dose-only effect; inactive = flat fitted curve, though single readings scatter. This is a selection; strong and weak results do not stand in their true shares.
% is scaled to controls: 0 for no effect and ±100 for the full control effect; potency is read from the fitted curve at half-maximal effect.

The target of the assay is DNA dC->dU-editing enzyme APOBEC-3G (Homo sapiens) (UniProt Q9HC16). As to the kind of experiment: qHTS for Inhibitors of Vif-A3G Interactions: qHTS. Also: nearly all actives have a fitted effect of over 60% in size.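 As to activity, negative = active: hits raise eYFP signal because A3G escapes Vif-driven loss.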 To be noted: HeLa A3G-eYFP + Vif (tagged APOBEC3G with the HIV-1 protein that degrades it), YFP fluorescence, overnight; series mostly up to 46.1 µM; activity, negative = active: at the top concentration. An excerpt: The recent discovery and characterization of host restriction factors, which provide a potent defense to invading retroviruses, has provided new targets for antiviral drug development. APOBEC3G (A3G) and APOBEC3F (A3F) are potent cytidine deaminases that block HIV-1 replication; HIV-1 expresses the Vif protein, which counteracts A3G and A3F by binding to them and inducing their proteasomal degradation. The Vif-A3G and Vif-A3F interactions provide two potential targets for development of small molecules which can interfere with the ability of Vif to degrade A3G or A3F. […] To identify inhibitors that can interfere with Vif mediated degradation of A3G and A3F, we have developed Hela cell lines that stably express A3G or A3F tagged with eYFP at the C-terminal end (A3G-eYFP or A3F-eYFP, respectively) and Vif. In the absence of an inhibitor, Vif induces degradation of A3G-eYFP and A3F-eYFP, and the cells are not fluorescent. In the presence of an inhibitor, it is expected that Vif will be unable to degrade A3G-eYFP and/or A3F-eYFP, resulting in an increase in yellow fluorescence. In this assays Vif A3G was screened against the Molecular Library Small Molecule Repository (MLSMR). NIH Chemical Genomics Center [NCGC] NIH Molecular Libraries Probe Centers Network [MLPCN] MLPCN Grant: MH093245 Assay Submitter (PI): Vinay Pathak, National Cancer Institute
Sequence of UniProt Q9HC16 (Q9HC16 whole entry, looked up): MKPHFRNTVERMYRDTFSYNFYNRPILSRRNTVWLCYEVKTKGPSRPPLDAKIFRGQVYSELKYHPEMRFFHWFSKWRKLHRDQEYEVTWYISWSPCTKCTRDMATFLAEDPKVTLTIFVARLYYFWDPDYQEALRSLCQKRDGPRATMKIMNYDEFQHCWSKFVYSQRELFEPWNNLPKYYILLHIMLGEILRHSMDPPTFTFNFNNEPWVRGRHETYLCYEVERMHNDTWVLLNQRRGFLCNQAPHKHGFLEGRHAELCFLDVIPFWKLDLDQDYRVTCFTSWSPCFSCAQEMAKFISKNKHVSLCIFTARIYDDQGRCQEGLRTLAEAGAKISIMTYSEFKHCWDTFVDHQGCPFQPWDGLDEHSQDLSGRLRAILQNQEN
5 uL of 700 cells/well of A3G-YFP cells are dispensed into black, clear bottom plates. The plates are incubated overnight at 37 deg C. 23 nL of compounds are added by pintool. The plates are incubated overnight at 37 deg C and then read on the TTP Acumen (Ex 488/ Em 500-530).
In general terms: qHTS replaces the single test concentration by a dilution series.
Regarding `COC(C[C@@H]1O[C@@H]1C(=O)[C@H](C)OCc1ccccc1)OC`, the “activity, negative = active” value is inactive: 1.13%.
The same measure, in the same setting: as for `Cc1ccc(N=C2NC(=O)/C(=C\c3cccs3)S2)cc1C`, the figure is inactive: -27.4%.
With `COc1ccc(CNC(=O)c2cc3cc(OC)ccc3oc2=O)cc1`, the “activity, negative = active” value was inactive: -15.9%.
Same read-out and setting: the value for `N#C/C(=C/c1ccco1)c1nc2ccccc2s1` was inactive: -27.2%.
Take `CC(=O)Nc1ccc2nc(NC(=O)c3ccc([N+](=O)[O-])o3)sc2c1`: the Potency is active: 12.6 µM.
As to `N#C/C(=C(/O)COC(=O)c1ccc2c(c1)OCCO2)c1nc2ccccc2[nH]1`, the “activity, negative = active” value was inactive: -25.2%.
Turning to `COc1cccc(/C=N/NC(=O)c2[nH]nc3c2CCc2ccccc2-3)c1O`, the Potency was active: 8.91 µM.
As for `O=C(O)c1ccc(Cn2cnc3cccnc32)cc1`, the “activity, negative = active” value is inactive: -0.528%.
The same measure, in the same setting: the value for `COc1ccc(/C=C/c2ccc3ccccc3n2)c(OC)c1` was inactive: -26.2%; that for `C[C@@H]1CN([C@@H](C)CO)S(=O)(=O)c2ccc(Br)cc2O[C@H]1CN(C)Cc1ccccn1` was inactive: -9.83%; that for `COc1ccccc1CNS(=O)(=O)c1ccc(-c2cnc(C3CC3)o2)cc1` was inactive: -15.1%.
Still for that read-out and setting: as for `C(=C\c1ccc2ccccc2n1)/c1ccccc1`, the figure is inactive: 4.24%; as for `Cc1ccc(CS(=O)(=O)c2ncc(Cl)c(C(=O)Nc3nnc(C(C)C)s3)n2)cc1`, inactive: -16.3%; as for `CC(=O)c1ccc(NS(=O)(=O)c2cc(-c3cnc(C4CC4)o3)ccc2C)cc1`, inactive: -23.2%.
`COc1ccc(-c2ccoc2)cc1[C@H]1[C@H]2C=CC[C@@H](C)[C@@H]2C(=O)N1Cc1ccccc1`: the “activity, negative = active” value was inactive: -15.8%.
The same measure, in the same setting: as for `Cc1nnc(N2CCCC(C(=O)Nc3cc(F)ccc3F)C2)c2nn(-c3ccccc3)c(C)c12` (stereo not drawn), the figure is inactive: 3.14%.
Still for that read-out and setting: as for `COC(C[C@H]1O[C@H]1C(=O)[C@H](C)OCc1ccccc1)OC`, the figure is inactive: -1.83%; as for `COCCCn1c(=O)/c(=C/c2ccccc2OC(C)C)s/c1=C(\C#N)C(=O)Nc1ccc(C(=O)O)cc1`, inactive: -2.46%.
The same measure, in the same setting: the value for `CCOC(=O)/C=c1/s/c(=C/c2ccc3cc(OC)ccc3c2)c(=O)n1CC(=O)NCC1CCCO1` (stereo not drawn) was inactive: -0.329%.
For `O=C(Nc1ccc(N2CCOCC2)cc1)c1cccc2ccccc12`, the Potency was active: 10 µM.
Turning to `COc1ccc(N/C=C/C(=O)c2sc(-c3ccccc3)nc2C)cc1`, the Potency is active: 11.2 µM.
For the molecule `CC1CC(Nc2ccccc2)c2ccccc2N1C(=O)c1cccnc1` (stereo not drawn), the “activity, negative = active” value is inactive: -31.5%.
In the case of `CCc1ccc(-c2cc(C)no2)cc1S(=O)(=O)NCc1ccco1`, the “activity, negative = active” value was inactive: -14.3%.
In the case of `C=CC[C@@H](CC(=O)N[C@H](CO)Cc1ccccc1)C(=O)NC[C@@H](OC(=O)[C@@H](CC=C)Cc1ccc(F)cc1)c1ccccc1`, the “activity, negative = active” value was inactive: 2.65%.
Still for that read-out and setting: the value for `COc1cccc2c1C(=O)/C(=C/c1ccc(N(C)C)cc1)C2` was inactive: 0.114%.
For `O=C(N/N=C/C(Br)=C\c1ccccc1)c1n[nH]c2c1CCC2`, the “activity, negative = active” value is inactive: -32%.
As for `O=C(C[C@H]1C/C=C\C[C@H](NC(=O)OCC2c3ccccc3-c3ccccc32)C(=O)O[C@H](c2ccccc2)CNC1=O)N[C@H](CO)Cc1ccccc1`, the “activity, negative = active” value is inactive: -12.7%.
Consider `Oc1ccc(/C=N\Nc2nncc(-c3ccccc3)n2)cc1`, for which the Potency is active: 11.2 µM.
As for `CCOc1ccccc1CNC(=O)C1CCN(c2nnc(C)c3c(C)n(-c4ccc(C)cc4)nc23)CC1`, the “activity, negative = active” value is inactive: 0.0846%.
Still for that read-out and setting: as for `COc1cc(-c2noc(C)c2C#Cc2ccsc2)cc(OC)c1OC`, the figure is inactive: -30.8%; as for `Cc1ccc(CNC(=O)CCS(=O)(=O)c2ccc3c(c2)CC(C)N3C(=O)C2CC2)cc1` (stereo not drawn), inactive: -19.5%.
With `O=S(=O)(/C(=C/c1ccc(C(F)(F)F)cc1)c1nc2ccccc2[nH]1)c1ccccc1`, the “activity, negative = active” value is inactive: -22.2%.
Take `COC(C[C@H]1O[C@H]1C(=O)[C@@H](C)OCc1ccccc1)OC`: the “activity, negative = active” value is inactive: 4.58%.
Regarding `CC(C)NC(=O)/C(C#N)=C\c1ccc(N(C)C)o1`, the “activity, negative = active” value is inactive: -18.2%.
In the case of `CC(C)CC[n+]1ccccc1/C=C/c1ccc(N(C)C)cc1`, the Potency was active: 10 µM.
`OCC1OC(n2cnc3c(NCc4ccco4)ncnc32)C(O)C1O` (stereo not drawn): the “activity, negative = active” value is inactive: -27%.
Still for that read-out and setting: the value for `COC(C/C=C\C(=O)[C@H](C)OCc1ccccc1)OC` was inactive: -4.65%; that for `CCCN1CCC(=O)N(CCSc2ccc(OC)cc2)CC1` was inactive: -29.9%.
On to `CCN(CC)c1ccc2cc(-c3nc(-c4cc5ccccc5oc4=O)cs3)c(=O)oc2c1`, for which the Potency was active: 7.08 µM.
With `CN(C)C(=O)c1cccc(-c2cccc(-c3nc(C(=O)NCc4ccccc4)cc4c3[C@H](CCO)N(S(=O)C(C)(C)C)C4)c2)c1` (stereo partly drawn), the “activity, negative = active” value is inactive: -5.93%.
With `O=C(C[n+]1cc(Br)cc2ccccc21)c1ccc(Br)cc1`, the “activity, negative = active” value was inactive: -10.8%.
On to `Cc1cc(=O)n2c(C(=O)Nc3ccc(C)c(C)c3)c(C(=O)Nc3ccccc3)sc2n1`, for which the “activity, negative = active” value was inactive: -27.5%.
On the same count and under the same terms, as for `COc1ccc2[nH]c3c(NCc4ccco4)ncnc3c2c1`, the figure is inactive: -15.1%; as for `CCCCN(C)CC(O)Cn1cc(/C=C/C(=O)c2ccc(C)cc2)c2ccccc21` (stereo not drawn), inactive: -22.5%; as for `C=C[C@@H]1c2cc(C)ccc2N(S(=O)(=O)c2ccc(C)cc2)[C@H](c2ccc(OC(C)=O)cc2)C1(C#N)C#N`, inactive: -7.2%.
On to `Oc1sc(C=Nc2ccccc2)c2ccccc12`, for which the Potency was active: 11.2 µM.
In the case of `CN(C)c1ccc(/C=C/c2nc3ccccc3s2)cc1`, the “activity, negative = active” value was inactive: 2.71%.
Still for that read-out and setting: the value for `COc1ccc(CN2[C@@H](CC(C)=O)c3ccc(/C=C/C(C)=O)cc3S2(=O)=O)cc1` was inactive: -29.2%.
